# Among all 350,000 compounds or so, about 31,000 (8.9%) were called active. The inconclusive results got no clear call from the source; some entries with a clear call stand among them for comparison. The call rests on the fitted dose curve; in most records, active means well fitted inhibition curve with a large enough effect; inconclusive means small, poorly fitted or top-dose-only effect; inactive means no such curve, though single readings can be large or run the other way. Potencies of inconclusive entries are doubtful fits and often do not repeat. Some compounds were tested as several samples or in several runs, with calls that do not always agree.
# Biological target: Histone-lysine N-methyltransferase EHMT2 (Homo sapiens) (UniProt Q96KQ7)
# UniProt Q96KQ7, sequence (Q96KQ7 whole entry, looked up): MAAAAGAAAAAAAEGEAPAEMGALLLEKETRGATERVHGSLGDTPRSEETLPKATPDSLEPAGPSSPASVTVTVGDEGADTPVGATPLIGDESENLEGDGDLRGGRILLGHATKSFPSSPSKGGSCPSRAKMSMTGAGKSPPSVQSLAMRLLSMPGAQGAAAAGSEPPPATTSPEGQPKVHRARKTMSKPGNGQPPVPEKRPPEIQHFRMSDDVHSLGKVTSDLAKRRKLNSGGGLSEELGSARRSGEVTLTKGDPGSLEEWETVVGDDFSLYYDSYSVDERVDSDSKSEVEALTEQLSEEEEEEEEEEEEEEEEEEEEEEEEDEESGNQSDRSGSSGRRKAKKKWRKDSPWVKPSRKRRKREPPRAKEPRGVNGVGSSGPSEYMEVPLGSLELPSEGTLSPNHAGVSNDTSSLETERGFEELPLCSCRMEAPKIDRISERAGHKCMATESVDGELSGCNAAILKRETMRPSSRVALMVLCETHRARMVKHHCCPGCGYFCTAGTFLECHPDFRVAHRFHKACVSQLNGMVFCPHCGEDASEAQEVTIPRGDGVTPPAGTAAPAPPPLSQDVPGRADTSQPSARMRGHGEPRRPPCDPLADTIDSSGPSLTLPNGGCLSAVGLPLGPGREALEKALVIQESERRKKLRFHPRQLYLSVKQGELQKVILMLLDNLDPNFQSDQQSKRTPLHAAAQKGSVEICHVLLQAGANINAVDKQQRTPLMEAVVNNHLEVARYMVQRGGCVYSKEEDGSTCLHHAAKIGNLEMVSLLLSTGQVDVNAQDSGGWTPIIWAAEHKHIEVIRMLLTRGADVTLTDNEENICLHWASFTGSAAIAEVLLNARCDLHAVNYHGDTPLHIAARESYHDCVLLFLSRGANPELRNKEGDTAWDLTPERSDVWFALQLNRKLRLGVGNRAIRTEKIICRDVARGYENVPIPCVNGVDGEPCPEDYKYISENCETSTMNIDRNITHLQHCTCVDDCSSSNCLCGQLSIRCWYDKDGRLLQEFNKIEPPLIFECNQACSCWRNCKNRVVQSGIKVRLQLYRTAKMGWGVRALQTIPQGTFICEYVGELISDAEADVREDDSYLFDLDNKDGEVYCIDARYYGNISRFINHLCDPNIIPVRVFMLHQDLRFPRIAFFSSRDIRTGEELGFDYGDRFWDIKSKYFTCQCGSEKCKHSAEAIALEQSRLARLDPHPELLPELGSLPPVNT
# Assay: qHTS Assay for Inhibitors of Histone Lysine Methyltransferase G9a; further: nearly all actives have a fitted effect of over 75% in size
# Conditions: G9a H3K9 monomethylation, AlphaScreen, 2 h; activity, negative = inhibition: at 59 µM (top of the series) unless noted
# Procedure, shortened: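 Readings reflect AlphaScreen signal from monomethyl-H3K9 antibody detection. HMT at 20 nM; substrate b-H3K9 500 nM; cofactor SAM 20 uM; 2 h RT reaction; compounds tested as titrations in qHTS with 15 min preincubation.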
# On the % scale 0 is the no-effect control and ±100 the full control effect; potency means the concentration at half of the fitted maximal effect; tags describe the fitted curve by direction and shape.
Compound,Potency,"activity, negative = inhibition"
O=C(NC(=S)NCCCN1CCOCC1)c1ccc(Br)cc1,inactive,
CCCOc1ccc(N2C(=O)CC(N(CCc3ccc(S(N)(=O)=O)cc3)C(C)=O)C2=O)cc1 (stereo unspecified),"inconclusive: 22.4 µM [inhibitor, partial curve, poor fit]",
CCC(CC)c1nnc(NC(=O)CCc2ccc(OC)cc2)s1,,inconclusive: -64.6% [inhibitor] [at 0.501 µM]
CCOc1ccc(NC(=O)CN(C)C(=O)c2cc(-c3ccncc3)nc3ccccc23)cc1OCC,"inconclusive: 79.4 µM [inhibitor, partial curve, poor fit]",
Nc1nc(Nc2cccc(Cl)c2)nc(NCc2ccco2)c1[N+](=O)[O-],"inconclusive: 28.2 µM [inhibitor, full curve]",
CCc1nn(CC(=O)NCCCN(CC)CC)c(=O)c2cc3sc(C)cc3n12,"inconclusive: 89.1 µM [inhibitor, partial curve, poor fit]",
Cc1ccccc1C(=O)NN1C(=O)CSC1=S,inactive,
CCSc1nnc(Cc2cc(=O)[nH]c(=O)[nH]2)n1-c1cc(C)ccc1C,,inconclusive: -51.5% [inhibitor]
C=C(C)Cn1c(=O)c2c(nc3n2CCN3c2ccc(CC)cc2)n(C)c1=O,inactive,
CC(C)(C)NC(=O)CSc1nc2ccc(NC(=O)CSc3nnc(N)s3)cc2s1,"inconclusive: 39.8 µM [inhibitor, single point]",
CCCCCc1cc(=O)oc2c(C(CCN3CCCCC3)c3cc(OC)c(OC)c(OC)c3)c(OC)cc(OC)c12 (stereo unspecified),inactive,
COc1ccccc1C(=O)NC(=S)Nc1cc(C(=O)O)ccc1C,active: 44.7 µM,
CCc1nn(CCCC(=O)Nc2ccc(C)cc2C)c(=O)c2cc3occc3n12,inactive,
Cc1cc(C)nc(NC(=O)CSc2nc3cc(Cl)ccc3s2)n1,"inconclusive: 3.55 µM [inhibitor, single point]",
CCOc1ccc(C(=O)Nc2ccccc2N2CCCC2)cc1,"inconclusive: 89.1 µM [inhibitor, single point]",
COc1cccc2cc(C(=O)CS(=O)(=O)c3ccc(C(C)(C)C)cc3)c(=O)oc12,"inconclusive: 44.7 µM [inhibitor, partial curve]",
CCC1(C)NC(=O)N(CC(=O)N2N=C(c3ccccc3)CC2c2ccc(OC)cc2)C1=O (stereo unspecified),"inconclusive: 28.2 µM [inhibitor, partial curve, poor fit]",
COc1cccc(/C=N/NC(=O)C(C)Sc2ccccc2)c1 (stereo unspecified),"inconclusive: 89.1 µM [inhibitor, partial curve, poor fit]",
COc1cccc(-n2c(=O)c3c(C)c(C(=O)N(C)C)sc3n(Cc3ccc(F)cc3Cl)c2=O)c1,inactive,
COCCN=c1scc(C)n1/N=C/C1CC2C=CC1C2 (stereo unspecified),active: 50.1 µM,
Cc1nc2ccccn2c1-c1csc(Nc2cccc(C(=O)O)c2)n1,active: 44.7 µM,
COC(=O)c1ccc(NC(=O)CSc2ccccc2)cc1,inactive,
COc1ccc(C(=O)COC(=O)c2ccccc2O)c(OC)c1,inactive,

Compound,Potency,"activity, negative = inhibition"
CCOc1ccc(OCCN(C)Cc2ccccc2)cc1,active: 3.98 µM,
CCOc1cc(C2C(C(=O)OC)=C(C)NC3=C2C(=O)c2ccccc23)cc(Cl)c1O (stereo unspecified),"inconclusive: 1.78 µM [inhibitor, full curve, poor fit]",
CCC(C)N(CCNC(=O)CC1Oc2ccccc2NC1=O)C1CCCCC1 (stereo unspecified),active: 50.1 µM,
CCOc1ccccc1NC(=O)c1cc2c(Cl)nc3ccccc3c2s1,inactive,
CCOC(=O)c1c(OCC)[nH]c2c1cc(O)c1ccccc12,"inconclusive: 10 µM [inhibitor, partial curve, poor fit]",
CN1CCN(CCC(=O)N2c3ccccc3Sc3ccc(Cl)cc32)CC1,"inconclusive: 0.631 µM [inhibitor, full curve, poor fit]",
c1ccc(-c2ccccn2)nc1,active: 14.1 µM,
COc1ccccc1OCC(=O)NNC(=O)C(=O)N1CCCC1,"inconclusive: 20 µM [inhibitor, partial curve]",
NCCc1nnc(SCC(=O)Nc2ccc(Br)cc2)o1,"inconclusive: 79.4 µM [inhibitor, single point]",
COc1ccc(N2CCN(S(=O)(=O)c3ccc4c(c3)CC(C)N4C(C)=O)CC2)cc1 (stereo unspecified),"inconclusive: 7.94 µM [inhibitor, partial curve, poor fit]",
NS(=O)(=O)c1ccc(CCNC(=O)CNS(=O)(=O)c2cccc(Br)c2)cc1,inactive,
COc1ccccc1/C=C/C=N/N1CCN(Cc2ccccc2)CC1,active: 11.2 µM,
O=C(NCC(c1cccnc1)N1CCN(c2ccc(F)cc2)CC1)c1ccc2c(c1)OCO2 (stereo unspecified),"inconclusive: 89.1 µM [inhibitor, single point]",
Cc1[nH]c2ccccc2c1C(=O)C(=O)Nc1ccc2c(c1)OCCO2,"inconclusive: 28.2 µM [inhibitor, partial curve]",
CCC(NC(=O)CCc1c(C)c2cc3c(C)c(C)oc3cc2oc1=O)C(=O)N[C@@H](Cc1ccccc1)C(=O)O (stereo partly specified),"inconclusive: 79.4 µM [inhibitor, single point]",
O=C(c1ccc(F)cc1)N1CCCC(c2nc(-c3ccncc3)no2)C1 (stereo unspecified),,inactive: 6.51% [at 12.7 µM]
COc1ccc(-c2nc(CS(=O)CC(=O)NC3CCCC3)c(C)o2)cc1OC (stereo unspecified),"inconclusive: 0.631 µM [inhibitor, full curve, poor fit]",
CCOC(=O)c1[nH]cnc1N=Nc1c(O)ccc2ccccc12,active: 50.1 µM,
CCSc1ncc(Cl)c(C(=O)Nc2ccccc2)n1,inactive,
COCCCN(CC(=O)Nc1ccc(N2CCOCC2)cc1)S(=O)(=O)c1ccc(C)cc1,inactive,
Cc1ccc(NC(=O)c2cccc(NC(=O)/C=C/c3ccco3)c2)cc1C,"inconclusive: 31.6 µM [inhibitor, single point]",
O=C(CN(Cc1ccc2c(c1)OCO2)C(=O)CSc1nc2ccccc2o1)NC1CCCCC1,,inactive: -4.87% [at 2.33 µM]
CNC(=S)NNC(=O)c1c(C)nc2cc(C)ccn12,"inconclusive: 35.5 µM [inhibitor, single point]",
